# Reference: PMC4336329 (PLoS ONE, 2015)
# The campaign covered roughly 310,000 compounds. About 14,000 (4.5%) showed an effect of 50% or more. The effect is printed as a negative number. This is one part of the list.
# Target: human ether-à-go-go-related gene (hERG) potassium channel (human, UniProt Q12809)
# Assay: primary screen, population patch clamp on CHO cells stably expressing hERG
# 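Further: peak tail current of the secondary pulse compared with the same well before compound.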
# Sequence of human ether-à-go-go-related gene (hERG) potassium channel (Q12809 whole entry, looked up): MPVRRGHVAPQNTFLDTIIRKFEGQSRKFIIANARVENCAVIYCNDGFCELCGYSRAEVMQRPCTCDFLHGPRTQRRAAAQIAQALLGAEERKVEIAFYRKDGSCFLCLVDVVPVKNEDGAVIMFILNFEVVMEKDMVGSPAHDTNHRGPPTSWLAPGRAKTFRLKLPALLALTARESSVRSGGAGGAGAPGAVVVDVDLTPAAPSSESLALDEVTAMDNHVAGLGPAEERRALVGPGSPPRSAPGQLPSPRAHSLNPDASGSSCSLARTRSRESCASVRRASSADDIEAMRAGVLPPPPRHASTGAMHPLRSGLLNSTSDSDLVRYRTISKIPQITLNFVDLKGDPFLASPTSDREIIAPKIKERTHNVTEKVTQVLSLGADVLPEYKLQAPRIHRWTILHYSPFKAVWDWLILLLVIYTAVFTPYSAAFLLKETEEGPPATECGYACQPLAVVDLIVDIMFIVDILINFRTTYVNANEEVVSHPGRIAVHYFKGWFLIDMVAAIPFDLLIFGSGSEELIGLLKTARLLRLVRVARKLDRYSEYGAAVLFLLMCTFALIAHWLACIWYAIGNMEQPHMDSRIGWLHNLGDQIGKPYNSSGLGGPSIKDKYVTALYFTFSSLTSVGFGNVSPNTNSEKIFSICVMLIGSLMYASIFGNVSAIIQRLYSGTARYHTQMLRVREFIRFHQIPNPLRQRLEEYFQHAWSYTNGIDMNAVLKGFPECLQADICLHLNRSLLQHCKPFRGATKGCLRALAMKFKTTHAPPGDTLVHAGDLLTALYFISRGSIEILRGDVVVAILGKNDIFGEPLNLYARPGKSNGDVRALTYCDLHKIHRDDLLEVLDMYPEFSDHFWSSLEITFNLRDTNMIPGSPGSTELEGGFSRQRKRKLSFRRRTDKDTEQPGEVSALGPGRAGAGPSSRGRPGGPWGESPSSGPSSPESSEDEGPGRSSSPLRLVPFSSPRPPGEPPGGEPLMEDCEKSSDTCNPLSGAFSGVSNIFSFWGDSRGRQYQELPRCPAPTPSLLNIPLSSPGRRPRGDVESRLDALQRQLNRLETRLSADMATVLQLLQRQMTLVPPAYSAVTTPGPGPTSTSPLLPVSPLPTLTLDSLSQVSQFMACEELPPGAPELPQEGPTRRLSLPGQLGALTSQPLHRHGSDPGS
row,Structure (SMILES),"hERG current change (%, negative = inhibition) at 10uM"
1,O=C(CSc1nnnn1-c1ccc(O)cc1)c1cc2ccccc2o1,-9.49%
2,Cc1ccccc1C(=O)Nc1cc(C(F)(F)F)ccc1-n1cncn1,-3.12%
3,O=C(Nc1ccc(OC(F)(F)F)cc1)c1ccc2nc[nH]c2c1,0.611%
4,O=[N+]([O-])c1cc(CN2CCN(c3cccc(C(F)(F)F)c3)CC2)c2cccnc2c1O,0.813%
5,C=CCNC(=S)NCCO,18.1%
6,CC(=O)n1nc(-c2cccnc2)nc1N,-7.75%
7,O=[N+]([O-])c1ccc(Cl)c(/C=N/NC(=S)Nc2ccccc2)c1,21.2%
8,COc1ccc(CNC(=O)CSc2nc3ccccc3n2C(C)=O)cc1,1.61%
9,CCOC(=O)NN1C(=O)c2ccccc2NC1c1cccnc1 (stereo not shown),0.824%
10,CC1CCCN(CC(O)COCc2ccc3c(c2)OCO3)C1.Cl (stereo not shown),-6.78%
11,Cc1nn(-c2ccccc2)c(N)c1C1(O)C(=O)N(C(C)C)c2ccccc21 (stereo not shown),-0.706%
12,CCC(C)N(C(=O)Cn1c(=O)cnc2ccccc21)C1CCS(=O)(=O)C1 (stereo not shown),-14.9%
13,CCCCC1=CC2=C(c3ccco3)C(=O)C(C)(OC(=O)c3ccc(OC)cc3)C(=O)C2=CN1C(CO)CO (stereo not shown),7.79%
14,COc1ccc2oc(N)c(C=O)c(=O)c2c1,8.6%
15,COc1ccc(-c2[nH]ncc2CN(C)C(C)c2cccs2)c(F)c1 (stereo not shown),-5.76%
16,Cc1cc(SCC(=O)Nc2ccc(O)cc2)n2nc(C)c(-c3ccccc3)c2n1,11.9%
17,CC(/C=C1\SC(=S)N(CCC(=O)Nc2nc(C)cs2)C1=O)=C\c1ccccc1,20.9%
18,S=c1[nH]nc(-c2ccc(Cl)cc2Cl)n1-c1ccccc1,17.7%
19,Cn1c(=O)c(C(=O)c2ccc(S(C)(=O)=O)c(Cl)c2Cl)c(O)c2ccccc21,-12.6%
20,CCC(Oc1ccccc1)C(=O)N1CCC(C(N)=O)CC1 (stereo not shown),15.8%
21,O=C1NCCCN1Cc1ccc(Cl)cc1,1.79%
22,NC(=O)c1ccc(NC(=O)CSc2nc3ccccc3c(=O)n2CCCN2CCOCC2)cc1,-5.06%
23,Cc1ccccc1CSCC(=O)c1c(N)n(CC(C)C)c(=O)n(C)c1=O,7.95%

row,Structure (SMILES),"hERG current change (%, negative = inhibition) at 10uM"
1,O=C(Cn1c(=O)n(CC2CS2)c2ccccc21)N1CCCCCC1 (stereo not shown),14.1%
2,CCCCCN(C(=O)NC(=O)Nc1ccc(C)cc1)S(=O)(=O)c1ccccc1,5.56%
3,CCC(C)c1nc2c(c(N3CCC3=O)c1-c1ccccc1)CCCC2 (stereo not shown),-26.8%
4,CC1CN(S(=O)(=O)c2cccc(C(=O)OCC(=O)c3cccs3)c2)CC(C)O1 (stereo not shown),5.85%
5,CCN1CCN(C(=O)c2ccc3c(c2)N(Cc2ccc(C)cc2)CCS3)CC1,-48.2%
6,Cc1cccc(N2CCN(S(=O)(=O)c3ccc(-c4coc(C)n4)cc3)CC2C)c1 (stereo not shown),8.34%
7,CN1C(N)=NC(=O)/C1=C\c1ccc(Br)cc1,8.35%
8,COc1ccc(C2=CC(=O)CC(c3ccccc3)C2)cc1 (stereo not shown),5.79%
9,OCCC1CN(Cc2ccc(C(F)(F)F)cc2)CCN1Cc1ccccc1 (stereo not shown),-56.8%
10,CC(C)n1c(CSCc2ccc(Cl)cc2Cl)n[nH]c1=S,3.14%
11,Clc1cccc(Cl)c1COc1ccncc1,7.32%
12,COc1ccc(CC(=O)N(C)Cc2cccc(OC)c2OC)cc1S(=O)(=O)N1CCOCC1,-5.58%
13,O=C(c1cccc(Cl)c1)N1CCCC(c2ccc(Cl)cc2)=N1,30.2%
14,CCOC(=O)C(NC(=O)c1ccccc1)(OCc1ccc(F)cc1)C(F)(F)F (stereo not shown),3.14%
15,CC1(C(=O)NC2CCCCCCC2)CCC(=O)N1CCN1CCOCC1 (stereo not shown),9.36%
16,COc1ccc(C(=O)/C=C/c2ccc3c(c2)OCCO3)cc1,17.5%
17,Fc1ccc(NCc2nnc(SCc3nnc(-c4ccccc4)o3)n2CC2CCCO2)cc1 (stereo not shown),-53.1%
18,COC(=O)C1=CN(CC2CCCO2)C=C(C(=O)OC)C1c1cccc(O)c1 (stereo not shown),-9.21%
19,CCCCSc1nc(O)c(Cc2ccccc2)c(=O)[nH]1,1.07%
20,CC(OC(=O)c1cccs1)C(=O)NCc1ccc2c(c1)OCO2 (stereo not shown),15.4%
21,CCOc1ccc(OCCC(=O)OCC(=O)NNC(=O)c2ccccc2)cc1,11.2%
22,CCCOc1ccc(N2C(=O)CC(SC(=NCC)Nc3cccc(F)c3)C2=O)cc1 (stereo not shown),2.28%
23,COc1ccc(NC(=O)C2CCCN2S(=O)(=O)c2cccs2)c([N+](=O)[O-])c1 (stereo not shown),-68.3%
